The text below walks through data of patent publication US20220125947A1.

Assay [1] has as its target TCR Vδ2 (TRDV2) on γδ T cells in PBMCs (human), A0JD36. The assay can be described thus: cell-based or functional assay.
Assay [2] addresses T cell receptor (TCR) Vγ9 (TRGV9) on Vγ9+ T cells in PBMCs (human), Q99603. Description: cell-based or functional assay.

Sequence of TCR Vδ2 (TRDV2) on γδ T cells in PBMCs (human), A0JD36 (A0JD36 20-115, stated change not applied): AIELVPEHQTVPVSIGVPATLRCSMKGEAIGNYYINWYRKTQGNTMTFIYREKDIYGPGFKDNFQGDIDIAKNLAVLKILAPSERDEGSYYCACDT
Sequence of T cell receptor (TCR) Vγ9 (TRGV9) on Vγ9+ T cells in PBMCs (human), Q99603 (Q99603 21-122): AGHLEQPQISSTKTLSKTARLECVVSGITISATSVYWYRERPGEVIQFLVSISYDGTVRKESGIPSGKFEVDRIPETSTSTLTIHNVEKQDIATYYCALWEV

B1: VG9B147 (antibody, human IgG1, lambda)
heavy: QVQLQESGPGLVNPSETLSLTCTVSGGSISGYFWNWIRQPPGKGLEWIGYIFYSGSTNYNPSLKSRVTISVDTSKNQFSLKLSSVTAADTAIYYCAREGKWELRSTFDIWGQGTMVTVSS[human IgG1 constant region omitted here]
light: SSELTQDPAVSVALGQTVRITCQGDSLRSYYATWYQQKPGQAPILVIYGENNRPSGIPDRFSGSRSGNTASLTITGAQAEDEADYYCNSRDTGDHHLVFGGGTKLTVLGQPKAAPSVTLFPPSSEELQANKATLVCLISDFYPGAVTVAWKADSSPVKAGVETTTPSKQSNNKYAASSYLSLTPEQWKSHRSYSCQVTHEGSTVEKTVAPTECS
On to B1, for which, in assay [1], the CD25+ (Vg9+ cells), flow staining was determined as 12%; the CD71+ (Vg9+ cells), flow staining was 89%; the Granzyme B (Luminex, supernatant) was found to be 307; the IFNγ (Luminex, supernatant) is 44. In assay [1], this molecule displayed an IL6 (Luminex, supernatant) of 81 and a Vg9 T cell %, flow staining of 3%.

B2: VG9B81 (antibody, human IgG1, kappa)
heavy: QVQLQESGPGLVKPSETLSLTCSVSGGSINTYYWSWFRQPAGKGLELIGRIYTSDNTNYNPSLKSRVTMSVDTSKNQFSLKLSSVTAADTAVYYCARYNWNYWYFDLWGRGTLVTVSS[human IgG1 constant region omitted here]
light: DIQMTQSPSFLSASVRDRVNITCRASQGISSYLAWYQQKPGKAPKLLIYTASTLQSGVPSRFSGSGSGTEFTLTISSLQPEDFATYYCQHLNSYPYTFGQGTKVEIKRTVAAPSVFIFPPSDEQLKSGTASVVCLLNNFYPREAKVQWKVDNALQSGNSQESVTEQDSKDSTYSLSSTLTLSKADYEKHKVYACEVTHQGLSSPVTKSFNRGEC
In assay [1], B2 came in with a CD25+ (Vg9+ cells), flow staining of 27.4%; a CD71+ (Vg9+ cells), flow staining of 79.7%; a Granzyme B (Luminex, supernatant) of 500; an IFNγ (Luminex, supernatant) of 138. In assay [1], the IL6 (Luminex, supernatant) was found to be 144; the TNFα (Luminex, supernatant) stood at 1150; the Vg9 T cell %, flow staining was found to be 8.4%.

B3: VG9B143 (antibody, human IgG1, lambda)
heavy: EVQLVESGGGLVQPGGSLRLSCAASGFTFSTYGMNWVRQAPGKGLEWISYISTSSYTIYYSDSVKGRFTVSRDNAKNSLYLQMNSLRDEDTAVYYCAREGDWWYFDLWGRGTTVTVSS[human IgG1 constant region omitted here]
light: QSALTQPASVSGSPGQSITISCTGTSSDVGGYNYVSWYQQHPGKAPKLMIYEVSNRPSGVSYRFSGSKSGNTASLTISGLQAEDEADYYCSSYTSSSTLVFGGGTKLTVLGQPKAAPSVTLFPPSSEELQANKATLVCLISDFYPGAVTVAWKADSSPVKAGVETTTPSKQSNNKYAASSYLSLTPEQWKSHRSYSCQVTHEGSTVEKTVAPTECS
In assay [2], B3 returned a CD25+ (Vg9+ cells), flow staining of 11.4%; a CD71+ (Vg9+ cells), flow staining of 87.5%; a Granzyme B (Luminex, supernatant) of 1090; an IFNγ (Luminex, supernatant) of 155. In assay [2], this molecule had an IL6 (Luminex, supernatant) of 113; a TNFα (Luminex, supernatant) of 32; a Vg9 T cell %, flow staining of 6.2%.

B4: VG9B417 (antibody, human IgG1, kappa)
heavy: EVQLVESGGGLVKPGGSLRLSCAASGFTFSNYGMNWVRQAPGKGLEWVSYISSGSSYKYYADSMKGRFTISRDNAMNLLYLQMNSLRPEDSAMYYCARDPVVTEYYYYGMDVWGQGTTVTVSS[human IgG1 constant region omitted here]
light: DIVMTQSPSSVSASVGDRVTITCRASQGINSWLAWYQQKPGNAPKLLIYAASSLQSGVPSRFSGIGSGTDFIFTISSLQPEDFASYYCQQANSFPWTFGQGTKVEIKRTVAAPSVFIFPPSDEQLKSGTASVVCLLNNFYPREAKVQWKVDNALQSGNSQESVTEQDSKDSTYSLSSTLTLSKADYEKHKVYACEVTHQGLSSPVTKSFNRGEC
On to B4, for which, in assay [2], the CD25+ (Vg9+ cells), flow staining was determined as 49.6%; the CD71+ (Vg9+ cells), flow staining stood at 98.8%; the Granzyme B (Luminex, supernatant) was determined as 5570; the IFNγ (Luminex, supernatant) was found to be 2870. In assay [2], this molecule returned an IL6 (Luminex, supernatant) of 1410; a TNFα (Luminex, supernatant) of 202; a Vg9 T cell %, flow staining of 10.9%.

B5: VG9B421 (antibody, human IgG1, kappa)
heavy: EVQLVESGGGLVKPGGSLRLSCAASGFTFSNYGMNWVRQAPGKGLEWVSYISSGSSYKYYADSMKGRFTISRDNAMNLLYLQMNSLRPEDSAMYYCARDPVVTEYYYYGMDVWGQGTMVTVSS[human IgG1 constant region omitted here]
light: DIQMTQSPSSVSASVGDRVTITCRASQGINSWLAWYQQKPGNAPKLLIYAASSLQSGVPSRFSGIGSGTDFIFTISSLQPEDFASYYCQQANSFPWTFGQGTRLEIKRTVAAPSVFIFPPSDEQLKSGTASVVCLLNNFYPREAKVQWKVDNALQSGNSQESVTEQDSKDSTYSLSSTLTLSKADYEKHKVYACEVTHQGLSSPVTKSFNRGEC
For the molecule B5, in assay [2], the CD25+ (Vg9+ cells), flow staining is 36.7%; the CD71+ (Vg9+ cells), flow staining came out at 98.7%; the Granzyme B (Luminex, supernatant) worked out at 6130; the IFNγ (Luminex, supernatant) stood at 2450. In assay [2], this molecule had an IL6 (Luminex, supernatant) of 604; a TNFα (Luminex, supernatant) of 255; a Vg9 T cell %, flow staining of 7.1%.

B6: VG9B88 (antibody, human IgG1, kappa)
heavy: EVQLVESGGGLVKPGGSLRLSCAVSGFTFSSYTMNWVRQAPGKGLEWVSSISTSSSYIDYADSVKGRFTISRDNAKKSLYLQMNSLRAEDTAVYYCARDGDMVAPIKGSFDYWGQGTLVTVSS[human IgG1 constant region omitted here]
light: EIVLTQSPLSLPVTPGEPASISCRSSQSLLNSDDGNTYLDWYLQKPGQSPQLLIYTLSYRASGVPDRFSGSGSGTDFTLKISRVEAEDVGVYYCMQRIEFPITFGQGTRLEIKRTVAAPSVFIFPPSDEQLKSGTASVVCLLNNFYPREAKVQWKVDNALQSGNSQESVTEQDSKDSTYSLSSTLTLSKADYEKHKVYACEVTHQGLSSPVTKSFNRGEC
With B6, in assay [2], the CD25+ (Vg9+ cells), flow staining was found to be 15.1%; the CD71+ (Vg9+ cells), flow staining worked out at 88.1%; the Granzyme B (Luminex, supernatant) was 2380; the IFNγ (Luminex, supernatant) is 1530. Moreover, in assay [2], the IL6 (Luminex, supernatant) was 551; the TNFα (Luminex, supernatant) is 1260; the Vg9 T cell %, flow staining came to 4.1%.

B7: VG9B472 (antibody, human IgG1, kappa)
heavy: QVQLVESGGGLVKPGGSLRLSCAASGFTFSHYDMNWVRQAPGKGLEWVSSISSSSSYIFYADSVKGRFTISRDNAKNSLLLQMNSLRAEDTAVYHCARDRGVGDTSDYYSFGLDVWGQGTTVTVSS[human IgG1 constant region omitted here]
light: EIVLTQSPSSLSASVGDRVTITCRASQGIATYLAWYQQKPGKVPNLLIYAASTLQSGVPSRFSGSGSGTDFTLTISSLQPEDVATYYCQKYNSAPPWTFGQGTKVEIKRTVAAPSVFIFPPSDEQLKSGTASVVCLLNNFYPREAKVQWKVDNALQSGNSQESVTEQDSKDSTYSLSSTLTLSKADYEKHKVYACEVTHQGLSSPVTKSFNRGEC
B7: in assay [2], the CD25+ (Vg9+ cells), flow staining turned out to be 23.4%; the CD71+ (Vg9+ cells), flow staining turned out to be 96.6%; the Granzyme B (Luminex, supernatant) is 2780; the IFNγ (Luminex, supernatant) was determined as 575. Moreover, in assay [2], the IL6 (Luminex, supernatant) worked out at 394; the TNFα (Luminex, supernatant) stood at 84; the Vg9 T cell %, flow staining was determined as 6.3%.

B8: VG9B419 (antibody, human IgG1, kappa)
heavy: EVQLVESGGGLVKPGGSLRLSCSASGFTFSNYDMNWVRQAPGKGLEWVSSISSSSSYIYYADSVKGRFTISRDNAKNSLYLQMNSLRAEDTAVYHCARDVGVTTDYYYYGMDVWGQGTTVTVSS[human IgG1 constant region omitted here]
light: EIVLTQSPGTLSLSPGDRATLSCRASQSVASSYLAWYQQKPGQSPRLLIYGASSRATGIPDRFSGSGSGTDFTLTISRLEPEDFAVYYCQQYGSSPPYTFGQGTKVEIKRTVAAPSVFIFPPSDEQLKSGTASVVCLLNNFYPREAKVQWKVDNALQSGNSQESVTEQDSKDSTYSLSSTLTLSKADYEKHKVYACEVTHQGLSSPVTKSFNRGEC
As for B8, in assay [2], the CD25+ (Vg9+ cells), flow staining stood at 34.2%; the CD71+ (Vg9+ cells), flow staining was 98.1%; the Granzyme B (Luminex, supernatant) came to 4250; the IFNγ (Luminex, supernatant) was determined as 2430. Further, in assay [2], the IL6 (Luminex, supernatant) is 362; the TNFα (Luminex, supernatant) worked out at 216; the Vg9 T cell %, flow staining is 5%.

B9: VG9B418 (antibody, human IgG1, kappa)
heavy: EVQLVQSGGGLVKPGGSLRLSCSASGFTFSNYDMNWVRQAPGKGLEWVSSISSSSSYIYYADSVKGRFTISRDNAKNSLYLQMNSLRAEDTAVYHCARDVGVTTDYYYYGMDVWGQGTMVTVSS[human IgG1 constant region omitted here]
light: EIVLTQSPGTLSLSPGDRATLSCRASQSVASSYLAWYQQKPGQSPRLLIYGASSRATGIPDRFSGSGSGTDFTLTISRLEPEDFAVYYCQQYGSSPPYTFGQGTKLEIKRTVAAPSVFIFPPSDEQLKSGTASVVCLLNNFYPREAKVQWKVDNALQSGNSQESVTEQDSKDSTYSLSSTLTLSKADYEKHKVYACEVTHQGLSSPVTKSFNRGEC
As to B9, in assay [2], the CD25+ (Vg9+ cells), flow staining amounted to 46.9%; the CD71+ (Vg9+ cells), flow staining turned out to be 99.2%; the Granzyme B (Luminex, supernatant) turned out to be 3890; the IFNγ (Luminex, supernatant) came out at 2180. Further, in assay [2], the IL6 (Luminex, supernatant) came out at 279; the TNFα (Luminex, supernatant) came out at 163; the Vg9 T cell %, flow staining was 13.3%.

B10: VG9B58 (antibody, human IgG1, kappa)
heavy: QVQLQESGPGLVKPSETLSLTCTVSGGSIKSSYWTWIRQPPGKGLEWIGYMFYLGSTNYNPSLKSRVTMSIDTSRNQFSLKLSSVTAADTAVYYCSRERPVLDAFDIWGQGTMVTVSS[human IgG1 constant region omitted here]
light: DIQMTQSPSAMSASVGDRVTITCRASQDITNYLAWFQQKPGKVPKRLIYAASSLQGGVPSRFSGSGSGTEFTLTISSLQPEDFSTYYCLQHDTYPYTFGQGTKVDIKRTVAAPSVFIFPPSDEQLKSGTASVVCLLNNFYPREAKVQWKVDNALQSGNSQESVTEQDSKDSTYSLSSTLTLSKADYEKHKVYACEVTHQGLSSPVTKSFNRGEC
In assay [2], B10 yielded a CD25+ (Vg9+ cells), flow staining of 33.9%; a CD71+ (Vg9+ cells), flow staining of 91.8%; a Granzyme B (Luminex, supernatant) of 3840; an IFNγ (Luminex, supernatant) of 1600. Also, in assay [2], the IL6 (Luminex, supernatant) was 572; the TNFα (Luminex, supernatant) is 3450; the Vg9 T cell %, flow staining came out at 6.8%.
